According to ChEMBL document CHEMBL1201862, “PubChem BioAssay data set” (2004):
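48-hour exposure; five concentrations; linearly interpolated endpoints. GI50 is the concentration that inhibits growth by half.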 Activity calls are given as the source filed them. No stated cut-off is given here; in the data, active = GI50 up to about 1.1 µM and inactive = higher.

Each compound was assayed on NCI-H322M (assay: growth of human tumour cells (NCI), 48 h).
With `O=C(O)CSc1nnc(COc2ccccc2)n1-c1ccccc1` the GI50 was inactive: > 100 µM.
For `CO[C@@H]1[C@H](O)CC[C@]2(CO2)[C@H]1[C@@]1(C)O[C@@H]1CC=C(C)C`, the GI50 was inactive: 44.1 µM.
`COc1cc2oc(=O)cc(C)c2c(OC)c1OC` was tested, and the GI50 was inactive: > 100 µM.
For `c1ccc(CCNCc2ccco2)nc1`, the GI50 was inactive: > 100 µM.
`COc1ccc2[nH]c(S(=O)(=O)N3CC(CCl)c4ccc(N)cc43)cc2c1` (stereo not given) was tested, and the GI50 was active: 0.379 µM.
In the case of `O=C(O)Cc1cc(Cl)ccc1O`, the GI50 is reported as inactive: > 100 µM.
In the case of `Cc1ccc(S(=O)(=O)N[C@H](C(=O)O)c2ccccc2)cc1`, the GI50 is reported as inactive: > 100 µM.
With `COC(=O)c1ccc2c(c1)S/C(=C/c1ccc3ccc4cccc5ccc1c3c45)S2` the GI50 was inactive: 87.9 µM.
`Cc1cc2nc3c(C#N)c4c(c(Nc5ccc(Cl)cc5)n3c2cc1C)CCC4` was tested, and the GI50 was inactive: 64.4 µM.
For `CCOC(=O)CC1C(C(=O)OCC)=Cn2c([nH]c3cccc4cccc2c43)=C1C(=O)OCC` (stereo not given), the GI50 was inactive: > 100 µM.
For `COC(=O)N/N=C(\C)CC(=O)Nc1cccc([N+](=O)[O-])c1`, the GI50 was inactive: > 100 µM.
With `COc1cc2c(cc1OC)C(C1CC1)ON(C)CC2` (stereo not given) the GI50 was inactive: > 100 µM.
For `O=[N+]([O-])c1ccccc1C1N2CCCCC2[C@@H]2c3[nH]c4ccccc4c3CCN12` (stereo not given in full), the GI50 was inactive: 12.2 µM.
With `COc1ccc(OC(C(=O)O)c2ccccc2)c2c1CCCC2=O` (stereo not given) the GI50 was inactive: > 100 µM.
`Cc1ccccc1/N=N/c1ccc(N/N=C2/CCCNC2=O)c(C)c1` was tested, and the GI50 was inactive: > 100 µM.
With `Nc1ccn(C2CCC(COP(=O)(O)OCC(O)COP(=O)(O)OCC3OC(n4cc(F)c(=O)[nH]c4=O)CC3O)O2)c(=O)n1` (stereo not given) the GI50 was inactive: 4.05 µM.
For `CC(C)(C)C1=Nc2c(Br)cc(C(C)(C)C)cc2C(C(F)(F)F)(C(F)(F)F)O1`, the GI50 was inactive: > 100 µM.
`O=C(N/N=C/c1ccc([N+](=O)[O-])cc1)Nc1ccc(Br)cc1` was tested, and the GI50 was inactive: > 100 µM.
`O=c1sc2c(s1)SSSSS2` was tested, and the GI50 was inactive: > 50 µM.
With `CC1(C)Cc2cc(C(=O)O)c3c(c2C1=O)COCC3` the GI50 was inactive: > 100 µM.
`O=C1/C(=C\c2ccc(Br)cc2)CCCc2ccccc21` was tested, and the GI50 was inactive: 30.7 µM.
`O=C(NC1CCCCCC1)C1C(=O)N(C2CCCCCC2)C(=O)/C1=N\O` (stereo not given) was tested, and the GI50 was inactive: 32.7 µM.
`Cn1c(-c2ccccc2)c2cc3nc4ccccc4nc3cc2c1-c1ccccc1` was tested, and the GI50 was inactive: 17.9 µM.
`O=[N+]([O-])C(C(Cl)=C(Cl)Cl)=C(N1CCOCC1)N1CCOCC1` was tested, and the GI50 was inactive: > 100 µM.
For `O=C1CNC(=O)c2[nH]cnc2N1`, the GI50 was inactive: > 100 µM.
`O=C(O)c1ccc(C2SCc3nc4ccccc4n32)cc1` (stereo not given) was tested, and the GI50 was inactive: > 100 µM.
`O=C(OCC(Cl)(Cl)Cl)N1CC[C@@H](C2CCCCC2)C1` was tested, and the GI50 was inactive: 36.1 µM.
In the case of `NC(=O)NC1C(C(N)=O)N(Cc2ccccc2)C(=O)N1Cc1ccccc1` (stereo not given), the GI50 is reported as inactive: > 100 µM.
With `Cc1cc2c(=O)cc(-c3ccc(C(=O)O)cc3)oc2c(C(=O)O)c1C` the GI50 was inactive: > 100 µM.
With `O=C(/C=C\c1ccccc1)Oc1ccc(/C=C2\CCC/C(=C\c3ccc(OC(=O)/C=C\c4ccccc4)cc3)C2=O)cc1` the GI50 was inactive: > 100 µM.
In the case of `N#CCCN(CCCN(C(=O)Nc1ccccc1)c1ccccc1)C(=O)Nc1ccccc1`, the GI50 is reported as inactive: > 100 µM.
For `COC(=O)Cc1c([C@H]2[C@H](CC(=O)OC)c3ccccc3N2S(=O)(=O)c2ccc(C)cc2)[nH]c2ccccc12`, the GI50 was inactive: > 100 µM.
In the case of `O=C(Nc1cccc(O)c1)C(=O)C(C(=O)c1ccc(Cl)c(Cl)c1)C1OC(=O)c2ccccc21` (stereo not given), the GI50 is reported as inactive: 11.7 µM.
For `COC(=O)c1ccc(C(=O)OC)c2nc3cc(Cl)ccc3nc12`, the GI50 was inactive: 86.1 µM.
For `CCN(CC)c1ccc2cc(-c3nnc(-c4ccccc4)[nH]3)c(=O)oc2c1`, the GI50 was inactive: 30.9 µM.
In the case of `Cc1cc(C)c(N[S+]([O-])c2ccc(Cl)cc2)c(C)c1` (stereo not given), the GI50 is reported as inactive: > 100 µM.
`CCOC(=O)N/N=C(/OCC)c1ccccc1` was tested, and the GI50 was inactive: > 100 µM.
In the case of `Cc1ccc(S[C@@H](C)[C@@](O)(CF)CN(Cc2ccccc2)C(=O)C(F)(F)F)cc1`, the GI50 is reported as inactive: 23.7 µM.
In the case of `NCP(=O)(O)OCC(=O)O`, the GI50 is reported as inactive: > 100 µM.
`CC1(C)S[C@@H]2[C@H](N3C(=O)c4ccccc4C3=O)CN2[C@H]1NC(=O)N[C@@H]1N2C[C@@H](N3C(=O)c4ccccc4C3=O)[C@H]2SC1(C)C` was tested, and the GI50 was inactive: > 100 µM.
With `CC12CCC(C(=O)N3CC=CCC3)(OC1=O)C2(C)C` (stereo not given) the GI50 was inactive: > 100 µM.
With `CC(/C=N/N=C1NCCCCN1)=N\N=C1NCCCCN1` the GI50 was inactive: > 100 µM.
In the case of `CC(=O)NNc1nc(C)c(C(=O)NNC(=O)C(=O)Nc2ccc(Cl)c([N+](=O)[O-])c2)s1`, the GI50 is reported as inactive: 62.8 µM.
`CC(Oc1ccccc1Cl)C(=O)NN1C(=O)CC(=O)N(c2ccccc2)C1=S` (stereo not given) was tested, and the GI50 was inactive: 57.1 µM.
`COc1ccc(OC)c(-c2nc3n(c2/C=C2/C(=O)Nc4ccccc42)CCS3)c1` was tested, and the GI50 was inactive: > 100 µM.
`Fc1cccc(F)c1C1SCC2=Nc3ccccc3CN21` (stereo not given) was tested, and the GI50 was inactive: 48.2 µM.
For `O=C(C(Cl)=C(N1CCOCC1)N1CCOCC1)C(Cl)Cl`, the GI50 was inactive: > 100 µM.
`N#Cc1nc(-c2ccccc2C(=O)O)oc1N` was tested, and the GI50 was inactive: > 100 µM.
With `CC(C)c1cccc(C(C)C)c1NC(=O)C(=O)Cc1nc2ccc([N+](=O)[O-])cc2nc1O` the GI50 was inactive: 77.1 µM.
In the case of `COC(=O)C1(C(=O)OC)CC(=O)c2cc3c(cc2-c2c(cc(OC)c(OC)c2OC)C1)OCO3`, the GI50 is reported as inactive: > 211 µM.
`COC(=O)[C@@H]1C[C@]2(CC=C(C)C)c3ccccc3N(S(=O)(=O)c3ccccc3)[C@@H]2N1C(=O)OC` was tested, and the GI50 was inactive: 35.7 µM.
For `COc1cc(/C=N/Nc2nnc3c4ccccc4c4ncccc4c3n2)cc(OC)c1OC`, the GI50 was inactive: > 10 µM.
With `C/C(=N\NC(=N)N)C(CN(CC(C)C)CC(C)C)C(=O)Nc1ccc(C)cc1C` (stereo not given) the GI50 was inactive: > 100 µM.
In the case of `C=C1C(=O)OC2C1C(OC(=O)/C(C)=C/C)CC(O)(CCl)C1C(OC(C)=O)C=C(C)C21O` (stereo not given), the GI50 is reported as inactive: 25.3 µM.
`N#Cc1[nH]c(=O)n(-c2ccccc2)c1N` was tested, and the GI50 was inactive: > 10 µM.
With `CN1CCN(CCCCN2c3ccccc3Sc3ccc(N=[N+]=[N-])cc32)CC1` the GI50 was inactive: 5.53 µM.
In the case of `CC1(C)[C@@H]2C[C@H]1[C@@H](Cc1cccc(C[C@H]3c4cc(-c5ccccn5)ncc4[C@H]4C[C@@H]3C4(C)C)c1)c1cc(-c3ccccn3)ncc12`, the GI50 is reported as inactive: 1.41 µM.
`CC1=C(C(=O)OC(C)C)C(c2ccccc2[N+](=O)[O-])C(C(=O)OC(CO[N+](=O)[O-])CO[N+](=O)[O-])=C(C)N1` (stereo not given) was tested, and the GI50 was inactive: 7.03 µM.
For `CCOC(=O)C1(C(=O)OCC)[C@@H](c2ccccc2)C2=NO[C@@H]3CCC[C@H]1[C@H]23`, the GI50 was inactive: > 100 µM.
`CC1(C)CC(=O)C(/C(=N/NC(=S)NN)C(=O)Nc2nc3ccc([N+](=O)[O-])cc3s2)C(=O)C1` was tested, and the GI50 was inactive: > 100 µM.
With `Cc1nc(-[n+]2nc(-c3ccncc3)nn2-c2ccccc2)sc1C` the GI50 was inactive: 74.5 µM.
`C/C(=C\c1ccccn1)c1ccccn1` was tested, and the GI50 was inactive: 86.9 µM.
For `CN(C)c1nc(N(C)C)n2nc(-c3ccccc3[N+](=O)[O-])nc2n1`, the GI50 was inactive: > 100 µM.
With `C=C1C(=O)O[C@H]2[C@H](OC(C)=O)[C@@H](C)CCC/C(C)=C/CC[C@@]3(C)O[C@@H]3C[C@@H]12` the GI50 was inactive: 7.45 µM.
For `Cc1n[n+]([O-])c(C)cc1[N+](=O)[O-]`, the GI50 was inactive: 17 µM.
In the case of `COc1ccc2cc3nc(O)cc(O)c3cc2c1OC`, the GI50 is reported as inactive: > 100 µM.
In the case of `O=C1c2ccccc2C(=O)N1CCCCCCNOCCCN1C(=O)c2ccccc2C1=O`, the GI50 is reported as inactive: > 100 µM.
With `C#CCNC(CCCNC(=N)N)C(=O)O` (stereo not given) the GI50 was inactive: > 100 µM.
For `CCOC(=O)c1c(NC(=O)c2ccccc2)c(C#N)c2n1CCCCC2`, the GI50 was inactive: > 100 µM.
With `O=C(/C=C/c1ccccc1Cl)c1cccc2ccccc12` the GI50 was inactive: 15 µM.
For `Cc1cc2nc(N)n[n+]([O-])c2cc1C`, the GI50 was inactive: > 100 µM.
With `CN(C)c1ccc(C2CC(c3ccc4ccccc4c3O)=NN2c2ccc([N+](=O)[O-])cc2[N+](=O)[O-])cc1` (stereo not given) the GI50 was inactive: 52.1 µM.
`C/C(=N/NC(=S)Nc1cccc(Cl)c1)c1ccccn1` was tested, and the GI50 was active: 0.0453 µM.
In the case of `CCc1c(OC(C)=O)c2c(NC3OC(COC(C)=O)C(OC(C)=O)C(OC(C)=O)C3OC(C)=O)nc(OC)nc2oc1=O` (stereo not given), the GI50 is reported as inactive: > 100 µM.
With `O=C(O)c1ccc(C2=Cc3cc(Cl)ccc3OC2)cc1` the GI50 was inactive: > 100 µM.
For `COCc1cc2c(cc1/C(=C/[N+](=O)[O-])CS(=O)(=O)c1ccccc1)OCO2`, the GI50 was inactive: > 100 µM.
With `CN(C)CCCNc1cnc2cc3ccccc3cc2n1` the GI50 was inactive: 30.3 µM.
`COC(=O)C1CCC(=O)N1C(c1ccc2c(c1)OCO2)c1ccc2c(c1)OCO2` (stereo not given) was tested, and the GI50 was inactive: > 100 µM.
For `Cc1cc(Cl)cc2c1NC(=O)C2(O)CC(=O)c1ccc(F)cc1` (stereo not given), the GI50 was inactive: > 100 µM.
In the case of `CC(C)CC(NP(=O)(O)OC1OC(C)C(O)C(O)C1O)C(=O)NC(Cc1c[nH]c2ccccc12)C(=O)O` (stereo not given), the GI50 is reported as inactive: > 100 µM.
`COc1cc(C2c3cc4c(cc3[C@@H](Nc3cccc(O)c3)C3COC(=O)[C@H]23)OCO4)cc(OC)c1O` (stereo not given in full) was tested, and the GI50 was inactive: 7.96 µM.
For `C=C1C(=O)OC2C(C)C3C=CC(=O)[C@@]3(C)C(OC(=O)/C(C)=C/C)C1[C@@H]2OC(C)=O` (stereo not given in full), the GI50 was inactive: 1.82 µM.
`O=c1cc(C(F)(F)F)c2cc3c(cc2o1)NCCC3` was tested, and the GI50 was inactive: 58.2 µM.
In the case of `N#CC(C#N)=C(N)/C(C#N)=C/c1ccc(O)c(O)c1`, the GI50 is reported as inactive: > 100 µM.
With `CC(=O)O[C@H]1C(=O)[C@@]2(C)[C@H]([C@H](OC(=O)c3ccccc3)[C@]3(O)C[C@H](OC(=O)[C@H](O)[C@@H](NC(=O)c4ccoc4)c4ccccc4)C(C)=C1C3(C)C)[C@]1(OC(C)=O)CO[C@@H]1C[C@@H]2O` the GI50 was active: 0.01 µM.
In the case of `O=C(c1cc(Cl)cc(Cl)c1)N1CCN(C(=O)c2cc(Cl)cc(Cl)c2)C1=S`, the GI50 is reported as inactive: 16.7 µM.
For `COc1cccc(/C=C\c2ccc(O)cc2)c1`, the GI50 was inactive: 28.8 µM.
For `CCC1(O)C(=O)OCc2c1cc1n(c2=O)Cc2cc3ccc(C=O)cc3nc2-1` (stereo not given), the GI50 was inactive: 6.59 µM.
With `CCc1nc(N)nc(N)c1-c1ccc(Cl)c([N+](=O)[O-])c1` the GI50 was active: 0.767 µM.
In the case of `Nc1nc(O)c2ncn([C@H]3CC[C@@H](CO)O3)c2n1`, the GI50 is reported as inactive: > 100 µM.
